Test results taken from patent US5698411A, “Method for determining activity of enzymes in metabolically active whole cells” (priority 1995, dated 1997).
One block for each compound: values may come before it. Numbered stars: 1 amine (or outer) side, 2 acyl side, 3 side chain; on linkers, the order of the positions; unused ones are H or OH. Bridge positions count the residues as written; N and C are the ends. Peptide text beside a SMILES is read from it. I, II: the chains in the order shown. Rhodamine110 = O=C1OC2(c3ccc(N[*:1])cc3Oc3cc(N[*:2])ccc32)c2ccccc21

How the values were obtained:
Type in all cases: cell-based, human
[1] = system: granulocytes; assay: ratio of enzyme activity in disease, granulocytes (Table 5)
[2] = system: lymphocytes; assay: ratio of enzyme activity in disease, lymphocytes (Table 5)
[3] = system: monocytes; assay: ratio of enzyme activity in disease, monocytes (Table 5)

Compound: C[C@H](N)C(=O)Nc1ccc2c(c1)Oc1cc(NC(=O)[C@H](C)N)ccc1C21OC(=O)c2ccccc21 [ALA, (Ala)2 Rho 110]
- Dermatomyositis Ratio Grans [1]: 0.97
- Inflam. Dis. Grans [1]: 0.80
- JRA Ratio Grans [1]: 1.21
- Kawasaki's Dis. Grans [1]: 1.31
- Lupus Ratio Grans [1]: 1.08
- Rheumatic Fever Grans [1]: 1.03

Compound: O=C1OC2(c3ccc(OC4O[C@H](CO)[C@@H](O)[C@H](O)[C@H]4O)cc3Oc3cc(OC4O[C@H](CO)[C@@H](O)[C@H](O)[C@H]4O)ccc32)c2ccccc21 (stereo partly drawn) [DGLUC, (D-glucose)2 fluorescein]
- Inflam Dis Lymphs [2]: 0.45
- Dermatomyositis Ratio Grans [1]: 1.18
- Inflam. Dis. Grans [1]: 0.38
- JRA Ratio Grans [1]: 0.98
- Kawasaki's Dis. Grans [1]: 0.22
- Lupus Ratio Grans [1]: 0.77
- Rheumatic Fever Grans [1]: 0.13
- Inflam. Dis. Monos ([3]; monos): 0.28

Compound: O=C1OC2(c3ccc(OP(=O)(O)O)cc3Oc3cc(OP(=O)(O)O)ccc32)c2ccccc21 [DPO4, (PO4)2 fluorescein]
- Lupus Ratio Lymphs [2]: 0.90
- Dermatomyositis Ratio Grans [1]: 0.88
- Inflam. Dis. Grans [1]: 0.38
- JRA Ratio Grans [1]: 0.98
- Kawasaki's Dis. Grans [1]: 0.69
- Lupus Ratio Grans [1]: 0.71
- Rheumatic Fever Grans [1]: 0.24

Compound: CC(=O)Oc1ccc2c(c1)Oc1cc(OC(C)=O)ccc1C21OC(=O)c2ccccc21 [FDA, fluorescein diacetate, reference compound]
- Rheumatic Fever Lymphs [2]: 0.90
- Dermatomyositis Ratio Grans [1]: 0.92
- Inflam. Dis. Grans [1]: 0.50
- JRA Ratio Grans [1]: 1.12
- Kawasaki's Dis. Grans [1]: 0.31
- Lupus Ratio Grans [1]: 1.01
- Rheumatic Fever Grans [1]: 0.67
- Rheumatic Fever Monos ([3]; monos): 0.53

Compound: CC(=O)Oc1ccc2c(c1)Oc1cc(OC(C)=O)ccc1C21OC(=O)c2ccccc21 [FDA-NAF, fluorescein diacetate, reference compound]
- Kawasaki's Ratio Dis. Lymphs [2]: 0.30
- Dermatomyositis Ratio Grans [1]: 0.97
- Inflam. Dis. Grans [1]: 0.08
- JRA Ratio Grans [1]: 0.23
- Kawasaki's Dis. Grans [1]: 0.39
- Lupus Ratio Grans [1]: 0.72
- Rheumatic Fever Grans [1]: 0.80

Compound: O=C1OC2(c3ccc(OC4O[C@H](CO)[C@H](O)[C@H](O)[C@H]4O)cc3Oc3cc(OC4O[C@H](CO)[C@H](O)[C@H](O)[C@H]4O)ccc32)c2ccccc21 (stereo partly drawn) [GALAC, (D-galactose)2 fluorescein]
- Inflam Dis Lymphs [2]: 1.40
- Dermatomyositis Ratio Grans [1]: 1.76
- JRA Ratio Grans [1]: 3.42
- Kawasaki's Dis. Grans [1]: 2.32
- Lupus Ratio Grans [1]: 1.01
- Rheumatic Fever Grans [1]: 1.16

Compound: C[C@H](NC(=O)CNC(=O)[C@H](Cc1ccccc1)NC(=O)CN)C(=O)Nc1ccc2c(c1)Oc1cc(NC(=O)[C@H](C)NC(=O)CNC(=O)[C@H](Cc3ccccc3)NC(=O)CN)ccc1C21OC(=O)c2ccccc21 [GFGA, (Gly-Phe-Gly-Ala)2 Rho 110] (I: H-GFGA / II: H-GFGA; linker I:C-II:C via Rhodamine110)
- Dermatomyositis Ratio Grans [1]: 1.85
- JRA Ratio Grans [1]: 2.26
- Kawasaki's Dis. Grans [1]: 1.93
- Lupus Ratio Grans [1]: 0.10
- Rheumatic Fever Grans [1]: 2.10

Compound: C[C@H](NC(=O)[C@@H](N)CCCCN)C(=O)Nc1ccc2c(c1)Oc1cc(NC(=O)[C@H](C)NC(=O)[C@@H](N)CCCCN)ccc1C21OC(=O)c2ccccc21 [KA, (Lys-Ala)2 Rho 110]
- JRA Ratio Lymphs [2]: 0.10
- Dermatomyositis Ratio Grans [1]: 1.16
- Inflam. Dis. Grans [1]: 0.05
- JRA Ratio Grans [1]: 0.10
- Kawasaki's Dis. Grans [1]: 0.99
- Lupus Ratio Grans [1]: 1.64
- Rheumatic Fever Grans [1]: 1.02

Compound: CC(C)C[C@H](N)C(=O)Nc1ccc2c(c1)Oc1cc(NC(=O)[C@@H](N)CC(C)C)ccc1C21OC(=O)c2ccccc21 [LEU, (Leu)2 Rho 110]
- JRA Ratio Lymphs [2]: 1.64
- Dermatomyositis Ratio Grans [1]: 1.31
- Inflam. Dis. Grans [1]: 0.58
- JRA Ratio Grans [1]: 1.43
- Kawasaki's Dis. Grans [1]: 0.33
- Lupus Ratio Grans [1]: 2.03
- Rheumatic Fever Grans [1]: 0.98

Compound: N=C(N)NCCC[C@H](N)C(=O)NCC(=O)N[C@@H](CCC(=O)O)C(=O)N[C@@H](CO)C(=O)Nc1ccc2c(c1)Oc1cc(NC(=O)[C@H](CO)NC(=O)[C@H](CCC(=O)O)NC(=O)CNC(=O)[C@@H](N)CCCNC(=N)N)ccc1C21OC(=O)c2ccccc21 (stereo partly drawn) [RGES, (Arg-Gly-Glu-Ser)2 Rho 110] (I: H-RGES / II: H-RGES; linker I:C-II:C via Rhodamine110)
- Inflam Dis Lymphs [2]: 1.23
- Dermatomyositis Ratio Grans [1]: 1.62
- Inflam. Dis. Grans [1]: 0.76
- JRA Ratio Grans [1]: 1.01
- Kawasaki's Dis. Grans [1]: 0.36
- Lupus Ratio Grans [1]: 1.36
- Rheumatic Fever Grans [1]: 1.54

Compound: CC(C)[C@H](N)C(=O)N[C@@H](CCCCN)C(=O)Nc1ccc2c(c1)Oc1cc(NC(=O)[C@H](CCCCN)NC(=O)[C@@H](N)C(C)C)ccc1C21OC(=O)c2ccccc21 [VK, (Val-Lys)2 Rho 110]
- Inflam Dis Lymphs [2]: 1.29
- Dermatomyositis Ratio Grans [1]: 1.12
- Inflam. Dis. Grans [1]: 0.85
- JRA Ratio Grans [1]: 1.26
- Kawasaki's Dis. Grans [1]: 1.30
- Lupus Ratio Grans [1]: 1.04
- Rheumatic Fever Grans [1]: 0.60

Compound: CC(C)[C@H](N)C(=O)N[C@@H](CCCCN)C(=O)Nc1ccc2c(c1)Oc1cc(NC(=O)[C@H](CCCCN)NC(=O)[C@@H](N)C(C)C)ccc1C21OC(=O)c2ccccc21 [VK-M, (Val-Lys)2 Rho 110 (modified)]
- Inflam Dis Lymphs [2]: 4.64
- Dermatomyositis Ratio Grans [1]: 0.15
- Inflam. Dis. Grans [1]: 3.39
- JRA Ratio Grans [1]: 9.49
- Kawasaki's Dis. Grans [1]: 0.72
- Lupus Ratio Grans [1]: 0.89
- Rheumatic Fever Grans [1]: 0.48

- Inflam Dis Lymphs [2]: 1.07
- Dermatomyositis Ratio Grans [1]: 1.44
- Inflam. Dis. Grans [1]: 0.83
- JRA Ratio Grans [1]: 1.24
- Kawasaki's Dis. Grans [1]: 2.54
- Lupus Ratio Grans [1]: 1.82
- Rheumatic Fever Grans [1]: 2.51
Compound: O=C(NCC(=O)N1CCC[C@H]1C(=O)Nc1ccc2c(c1)Oc1cc(NC(=O)[C@@H]3CCCN3C(=O)CNC(=O)OCc3ccccc3)ccc1C21OC(=O)c2ccccc21)OCc1ccccc1 [Z-GP, (carbobenzyloxycarbonyl-Gly-Pro)2 Rho 110]

- Inflam Dis Lymphs [2]: 1.04
- Dermatomyositis Ratio Grans [1]: 2.76
- Inflam. Dis. Grans [1]: 0.66
- JRA Ratio Grans [1]: 1.46
- Kawasaki's Dis. Grans [1]: 2.83
- Lupus Ratio Grans [1]: 1.94
- Rheumatic Fever Grans [1]: 2.98
Compound: O=C(NCC(=O)N1CCC[C@H]1C(=O)Nc1ccc2c(c1)Oc1cc(NC(=O)[C@@H]3CCCN3C(=O)CNC(=O)OCc3ccccc3)ccc1C21OC(=O)c2ccccc21)OCc1ccccc1 [Z-GP-M, (carbobenzyloxycarbonyl-Gly-Pro)2 Rho 110 (modified)]

- Inflam Dis Lymphs [2]: 1.71
- Dermatomyositis Ratio Grans [1]: 2.79
- JRA Ratio Grans [1]: 5.70
- Kawasaki's Dis. Grans [1]: 4.21
- Lupus Ratio Grans [1]: 2.19
- Rheumatic Fever Grans [1]: 4.73
Compound: C[C@@H](O)[C@H](NC(=O)OCc1ccccc1)C(=O)N1CCC[C@H]1C(=O)Nc1ccc2c(c1)Oc1cc(NC(=O)[C@@H]3CCCN3C(=O)[C@@H](NC(=O)OCc3ccccc3)[C@@H](C)O)ccc1C21OC(=O)c2ccccc21 [Z-TP6.5, (carbobenzyloxycarbonyl-Thr-Pro)2 Rho 110 (pH 6.5)]

Compound: (Gly)2 Rho 110
- Dermatomyositis Ratio Lymphs ([2]; Dermatomyositis): 1.30
- Inflam Dis Lymphs [2]: 0.16
- Inflam. Bowel Dis. Lymphs ([2]; Inflam. Bowel Dis.): 1.97
- JRA Ratio Lymphs [2]: 0.17
- Kawasaki's Ratio Dis. Lymphs [2]: 1.94
- Lupus Ratio Lymphs [2]: 1.64
- Rheumatic Fever Lymphs [2]: 2.09
- Dermatomyositis Ratio Grans [1]: 1.12
- Inflam. Bowel Dis. Lymphs ([1]; Inflam. Bowel Dis., […]): 1.78
- Inflam. Dis. Grans [1]: 0.17
- JRA Ratio Grans [1]: 0.30
- Kawasaki's Dis. Grans [1]: 2.30
- Lupus Ratio Grans [1]: 1.42
- Rheumatic Fever Grans [1]: 0.56
- Dermatomyositis Ratio Monos ([3]; Dermatomyositis, monos): 1.01
- Inflam. Bowel Dis. Lymphs ([3]; Inflam. Bowel Dis., MONOCYTES section): 1.84
- Inflam. Dis. Monos ([3]; monos): 0.35
- JRA Ratio Monos ([3]; JRA, monos): 1.11
- Kawasaki's Dis. Monos ([3]; Kawasaki's, monos): 3.83
- Lupus Ratio Monos ([3]; Lupus, monos): 6.00
- Rheumatic Fever Monos ([3]; monos): 2.06
